For 54 sequences, binding signal results are on record in article PMC7819943, “Rice protein-binding microarrays: a tool to detect cis-acting elements near promoter regions in rice”.

Some of the results follow.

The test deals with T1, OsWOX13 (Oryza sativa, UniProt Q5QMM3 1-267).
T1 sequence: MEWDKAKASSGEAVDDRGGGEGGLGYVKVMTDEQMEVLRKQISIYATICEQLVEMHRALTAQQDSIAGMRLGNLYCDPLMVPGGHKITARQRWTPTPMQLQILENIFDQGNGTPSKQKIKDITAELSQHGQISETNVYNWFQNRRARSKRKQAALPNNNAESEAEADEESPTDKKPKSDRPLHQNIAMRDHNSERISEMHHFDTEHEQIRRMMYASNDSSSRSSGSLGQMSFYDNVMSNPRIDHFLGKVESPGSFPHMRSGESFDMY
As to the kind of experiment: protein-binding microarray (RPBM); PBS, 2% BSA, 51.3 ng/ul salmon testes DNA, 50 uM zinc acetate, 200 nM TF, 25 C, 1 h; high values mean tight binding. Conditions: protein: recombinant; tags: N-terminal polyhistidine and DsRed monomer fusion (pET32a); label: CyDye5-dUTP incorporated in the synthesized complementary strand; 3' TTTTT single-stranded linker to array surface; dsDNA, one strand shown. Summed up: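 A custom Agilent array was converted to double-stranded form by primer extension with Cy5-dUTP and blocked with 2% BSA. Protein at 200 nM in PBS with 2% BSA, salmon testes DNA and 50 µM zinc acetate was applied for 1 h at 25 °C, followed by washing. The proteins were polyhistidine–DsRed N-terminal fusions of transcription factors, expressed in E. coli BL21-CodonPlus and Ni–NTA-purified. The binding signal is per-feature fluorescence intensity (arbitrary units) from an Axon 4000B scanner.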
“ACTGATTGATTGCCCTGATGGCAATTTTATATGGTTAATACGGAGTCACCTAGTGCAG”: the binding signal was 38400 fluorescence intensity (a.u.).

Regarding “CTCTAAATTATTTCTTCGAAAAGGACTCGGACATCCTATTCGGAGTCACCTAGTGCAG”, the binding signal was 9370 fluorescence intensity (a.u.).

As to “TATCAATAAACTAATTGTCAATTTGCCATGAGGTTTAAACCGGAGTCACCTAGTGCAG”, the binding signal is 15300 fluorescence intensity (a.u.).

On to “ATTTGCACATGATTGATCACAAGTTGTGATTCACAAATCACGGAGTCACCTAGTGCAG”, for which the binding signal is 22100 fluorescence intensity (a.u.).

Consider “GCCAAATTAGATGGAAAGTTGGTTATATAGGTGTTTATATCGGAGTCACCTAGTGCAG”, for which the binding signal was 29100 fluorescence intensity (a.u.).

As to “ATCATTGGATTGGTATTTCAATATATTTTCATATGTTATACGGAGTCACCTAGTGCAG”, the binding signal was 3500 fluorescence intensity (a.u.).

For the sequence “AAAATTAATGAAAATGTTTATTTTGACAGTATGAATATGCCGGAGTCACCTAGTGCAG”, the binding signal is 17100 fluorescence intensity (a.u.).

Take “GCTATATTGGTATAATATGATAATCTCCTCTAAAGGTGTTCGGAGTCACCTAGTGCAG”: the binding signal is 3240 fluorescence intensity (a.u.).

Consider “GTGCAATTTAACTCCATAAATTACTTTCAGAAATGTGCAGCGGAGTCACCTAGTGCAG”, for which the binding signal was 11300 fluorescence intensity (a.u.).

With “TCAATATAAATTAACTTTGCTACACGAATCTTAATATAGGCGGAGTCACCTAGTGCAG”, the binding signal is 5040 fluorescence intensity (a.u.).

Regarding “AATCATCGCTCTTAATTATGATCTACCTACTTTATGTCTGCGGAGTCACCTAGTGCAG”, the binding signal is 5190 fluorescence intensity (a.u.).

As to “ATTCACCTGCTTTAATTTGCATCGATCCCAACTTAAACTGCGGAGTCACCTAGTGCAG”, the binding signal is 4250 fluorescence intensity (a.u.).

Regarding “AGATAAATTGCATTCATGATACTTTGTGCTTGTACTTGACCGGAGTCACCTAGTGCAG”, the binding signal is 27100 fluorescence intensity (a.u.).

For “CATTAATTTACGCGCTAAATCACCGGTTAGGCCTCGTTTACGGAGTCACCTAGTGCAG”, the binding signal was 29200 fluorescence intensity (a.u.).

With “CCATGAGATTGAGACCAGCCAAAGCCCAAGCAGCTTGCATCGGAGTCACCTAGTGCAG”, the binding signal was 14800 fluorescence intensity (a.u.).

With “ATCAAATTATTATTGTCAAGGGGATGAAAGGAAAAGAATACGGAGTCACCTAGTGCAG”, the binding signal was 4590 fluorescence intensity (a.u.).

With “TAGTTAATTAGGAAAGGAAAACTAATGTACCATGACTGTTCGGAGTCACCTAGTGCAG”, the binding signal is 19100 fluorescence intensity (a.u.).

Regarding “GACATAGACAGAAAATTAAGAAGAATAACACGGTGTTCGTCGGAGTCACCTAGTGCAG”, the binding signal is 12400 fluorescence intensity (a.u.).

For the sequence “ATATATAGATTATTTTGACTTGAAATTGTGAAATTACTCTCGGAGTCACCTAGTGCAG”, the binding signal was 5960 fluorescence intensity (a.u.).

Consider “TCCTAACCAATAATTAACAAATCCTTGCAGATGGTTTGGACGGAGTCACCTAGTGCAG”, for which the binding signal is 29800 fluorescence intensity (a.u.).

With “TATATTCAATTATTGATTTGATAAAACTAATTTAGTATTACGGAGTCACCTAGTGCAG”, the binding signal is 24300 fluorescence intensity (a.u.).

With “CCGAGATTTTGTTTGCATGGTGATTAGAATCACCGAAGCCCGGAGTCACCTAGTGCAG”, the binding signal was 12400 fluorescence intensity (a.u.).

As to “ATATATATCACAGTATAAGATTGGCGGCGGCGGCTTACATCGGAGTCACCTAGTGCAG”, the binding signal is 4020 fluorescence intensity (a.u.).

Regarding “CGATTGTCAATTCTTCGCAATCATAGATGCTAGCTAGCTTCGGAGTCACCTAGTGCAG”, the binding signal is 4020 fluorescence intensity (a.u.).

For “CTAGCTGATGGATGACTAATTTAGTTTAATTAAGTCCAAACGGAGTCACCTAGTGCAG”, the binding signal was 35100 fluorescence intensity (a.u.).

In the case of “TGTAACAAATTAGATTATCCCATTTGTCTGACGTTGCCTGCGGAGTCACCTAGTGCAG”, the binding signal is 27100 fluorescence intensity (a.u.).

For “ATCTAAATTTGAGAATCTGATCAAACCCAGACTTAAACTACGGAGTCACCTAGTGCAG”, the binding signal is 3970 fluorescence intensity (a.u.).

With “AACTATATAAATTGAGAAATTAATGGTCAGAATTACGAATCGGAGTCACCTAGTGCAG”, the binding signal is 5510 fluorescence intensity (a.u.).

“GGCACATTGTGATTGAATCTTGGATCGAGGCTGGACTTCCCGGAGTCACCTAGTGCAG”: the binding signal is 22600 fluorescence intensity (a.u.).

As for “TATTGATTTGATAAAACTAATTTAGCATTATAAATATTATCGGAGTCACCTAGTGCAG”, the binding signal is 21300 fluorescence intensity (a.u.).

“TTTCTGATTTTGTTTTGCTATTGTTTTGTTTGTCTTGTTTCGGAGTCACCTAGTGCAG”: the binding signal was 12100 fluorescence intensity (a.u.).

Regarding “CTACTAGAGTAATAATAACGTAATTACAGATCAAGGTTGGCGGAGTCACCTAGTGCAG”, the binding signal is 4430 fluorescence intensity (a.u.).

On to “ATGAAAATTATACAGATTTGTGAAATTTTACACGATAGTTCGGAGTCACCTAGTGCAG”, for which the binding signal is 14700 fluorescence intensity (a.u.).

As to “TATTAATTCCCTTAAAGATTTGCAAAGCTTACCACTGTACCGGAGTCACCTAGTGCAG”, the binding signal is 4810 fluorescence intensity (a.u.).

As to “TCTATAATAATAATTGTGACTGCTGCACTATACGGAGGCTCGGAGTCACCTAGTGCAG”, the binding signal was 11200 fluorescence intensity (a.u.).

With “CATCTATTTCGACAATGTGATTTCACATGACAGACTTGGGCGGAGTCACCTAGTGCAG”, the binding signal is 3250 fluorescence intensity (a.u.).

Consider “GCGCGTGTGATTATAGGGGTGAATATGTATACGCTCACCTCGGAGTCACCTAGTGCAG”, for which the binding signal is 6220 fluorescence intensity (a.u.).

With “TTATTCAGATAATTTGATGATGATGAAAGCAGAAGCTTTGCGGAGTCACCTAGTGCAG”, the binding signal is 8570 fluorescence intensity (a.u.).

Turning to “GTCAATACATGATTGAGTTTGAATTAATAACTTTTAAATTCGGAGTCACCTAGTGCAG”, the binding signal was 21300 fluorescence intensity (a.u.).

Consider “ATAATTATACATTTGCTGTATTTGACATATTTTAAGGGGACGGAGTCACCTAGTGCAG”, for which the binding signal is 14100 fluorescence intensity (a.u.).

Regarding “CAAGTTAATTTGTATGGCATTTTGGATGACATGCAAAAGTCGGAGTCACCTAGTGCAG”, the binding signal was 23100 fluorescence intensity (a.u.).

As to “GTGATGGATGAAACCGCGTGGTGACGGAATTGGACAGCGCCGGAGTCACCTAGTGCAG”, the binding signal is 3710 fluorescence intensity (a.u.).

Consider “AAGTTATTTGACTTTATTAATTAGTCAAGATTCTTTAGGTCGGAGTCACCTAGTGCAG”, for which the binding signal is 9300 fluorescence intensity (a.u.).

Take “AACCTTGTAGTAATTAGTTGTGATTTCTTTGAAGTGAAGACGGAGTCACCTAGTGCAG”: the binding signal is 10300 fluorescence intensity (a.u.).

With “TAAACTAGACTGAATTTAATAACAAATTTAAACGTGTACTCGGAGTCACCTAGTGCAG”, the binding signal was 10700 fluorescence intensity (a.u.).

With “ATTCGATTTTCACATTAATTGGTTGCCAAATTTATTAATTCGGAGTCACCTAGTGCAG”, the binding signal is 16800 fluorescence intensity (a.u.).

With “TTCATTAAATTTAACGTTGACTATATTTTAATACAATATTCGGAGTCACCTAGTGCAG”, the binding signal is 9980 fluorescence intensity (a.u.).

Take “AGCTTACGTAATTACGTTTCGGTTTAAAGTTTACGTAAAGCGGAGTCACCTAGTGCAG”: the binding signal is 14700 fluorescence intensity (a.u.).

As for “TCAACGAAACTGACGGCAATCACGTTGGGCTCGACATCAACGGAGTCACCTAGTGCAG”, the binding signal was 7620 fluorescence intensity (a.u.).

In the case of “TGTCCGTAATTACTAATTAGGTGATGTGCTCAGTGAGTGCCGGAGTCACCTAGTGCAG”, the binding signal is 43700 fluorescence intensity (a.u.).

Turning to “TTGATTGCACAACAAGGGTGTCGCCGGCGGCATCTCATCACGGAGTCACCTAGTGCAG”, the binding signal was 4000 fluorescence intensity (a.u.).

For “TCCCATCTAAAATCATATATAATTATATATAATGTAATCCCGGAGTCACCTAGTGCAG”, the binding signal was 10800 fluorescence intensity (a.u.).

Take “GAGTAATAGATTTTACCACATTGATAGTATTGACCAACTACGGAGTCACCTAGTGCAG”: the binding signal was 8420 fluorescence intensity (a.u.).

As to “AATAATTAGTTTTAAACATCATATCATAAGTCCACCACAACGGAGTCACCTAGTGCAG”, the binding signal was 21200 fluorescence intensity (a.u.).
